Structures can show the parent of a compound that is named as a salt. ± gives the standard deviation of the averaged measurements. Whole data set: some 2,600 compounds, median “total cell number (DAPI+ nuclei) relative to DMSO vehicle control” near -1.4, cut for the lowest 2% near -23. Some of the results follow.

The subject of this experiment is jimpy (Plp1 jimpy) mouse iPSC-derived oligodendrocyte progenitor cells. In words: total cell number (DAPI+ nuclei) relative to DMSO vehicle control (SDs above negative control mean); higher = more surviving cells. The following applies: 10 µM; 3 days.
In turn, `CCCCOc1ccc(C(=O)CCN2CCCCC2)cc1` [Dyclonine HCl] registered a total cell number of -3.72.

Consider `CC(C)(C)CC(C)(C)c1ccc(OCCOCC[N+](C)(C)Cc2ccccc2)cc1` [Benzethonium Chloride], for which the total cell number was -16.4.

`CN1[C@@H]2CC[C@H]1C[C@@H](OC(=O)C(O)c1ccccc1)C2` (mixture of isomers) [DL-Homatropine hydrobromide] gave a total cell number of 0.0407.

As to `Cn1nnc2c(C(N)=O)ncn2c1=O` [Temozolomide], the total cell number was 1.12.

The compound `O=[N+]([O-])c1cn2c(n1)OC[C@@H](OCc1ccc(OC(F)(F)F)cc1)C2` displayed a total cell number of -1.36.

Turning to `Cc1ccc(C(=O)N(CCCN)[C@@H](c2oc3cc(Cl)ccc3c(=O)c2Cc2ccccc2)C(C)C)cc1`, the total cell number was -15.1.

With `CC(C)(C)NC(=O)[C@H]1CC[C@H]2[C@@H]3CC[C@H]4NC(=O)C=C[C@]4(C)[C@H]3CC[C@]12C` [Finasteride], the total cell number is -0.502.

On to `Cc1ccc(C(=O)Cn2c3c(sc2=N)CCCC3)cc1` [Pifithrin-? (PFT?)], for which the total cell number was 1.69.

`C=CC[N+]1([C@H]2C[C@H]3[C@@H]4CC[C@H]5C[C@H](O)[C@@H](N6CCOCC6)C[C@]5(C)[C@H]4CC[C@]3(C)[C@H]2OC(C)=O)CCCC1` [Rocuronium Bromide] registered a total cell number of 0.0371.

`C=C1CC[C@H](O)C/C1=C/C=C1\CCC[C@]2(C)[C@@H]([C@H](C)/C=C/[C@H](C)C(C)C)CC[C@@H]12` [Vitamin D2] showed a total cell number of 9.04.

As for `Nc1nc(N)c2nc(-c3ccccc3)c(N)nc2n1` [Triamterene], the total cell number is -2.65 ± 0.62.

Turning to `COc1cc(OC)c(NC(=O)Nc2cc(C)on2)cc1Cl`, the total cell number is -0.876.

`N[C@H]1CONC1=O` [L-Cycloserine] came in with a total cell number of -1.52.

As for `CNC(=O)c1ccc(N2C(=S)N(c3ccc(C#N)c(C(F)(F)F)c3)C(=O)C2(C)C)cc1F` [Enzalutamide (MDV3100)], the total cell number amounted to 10.1.

`O=c1c(O)c(-c2ccc(O)cc2)oc2cc(O)cc(O)c12` [Kaempferol] came in with a total cell number of -2.62.

In the case of `N#C/C(=C(/N)Sc1ccc(N)cc1)c1ccccc1C(F)(F)F`, the total cell number is -4.11.

`COc1cc2nc(N3CCN(C(=O)C4COc5ccccc5O4)CC3)nc(N)c2cc1OC` (stereo unspecified) [Doxazosin Mesylate] came in with a total cell number of -5.25.

`COc1cc2nc(N3CCN(C(=O)C4COc5ccccc5O4)CC3)nc(N)c2cc1OC` (stereo unspecified) [Doxazosin mesylate] displayed a total cell number of -3.83.

Regarding `O=C(c1cc(O)c(O)c([N+](=O)[O-])c1)c1ccccc1F`, the total cell number turned out to be 0.768.

In turn, `O=P(O)(O)C(O)(Cn1ccnc1)P(=O)(O)O` [Zoledronic acid monohydrate] returned a total cell number of -0.35.

In the case of `O=P(O)(O)C(O)(Cn1ccnc1)P(=O)(O)O` [Zoledronic Acid], the total cell number is -2.71.

`CC(C)(CO)[C@@H](O)C(=O)NCCC(=O)O` [D-Pantothenic acid] gave a total cell number of 0.13.

In the case of `O=c1[nH]ccc2c(O)cccc12` [1,5-Isoquinolinediol], the total cell number was -1.28.

On to `COc1cc(NC(=O)c2ccccn2)ccc1Cl`, for which the total cell number was -0.24.

With `Cc1cc(C(C)(C)C)cc(C)c1CC1=NCCN1` [Xylometazoline hydrochloride], the total cell number is -2.23.

`Cc1cc(C(C)(C)C)cc(C)c1CC1=NCCN1` [Xylometazoline HCl] returned a total cell number of -1.28.

As to `CCN(CC)C(=O)C1(c2ccccc2)CC1CN` (stereo unspecified) [Milnacipran HCl], the total cell number is -0.999.

`CCN(CC)CCOCCOC(=O)C1(c2ccccc2)CCCC1` [Carbetapentane citrate] showed a total cell number of 4.89.

For `CC#CCn1c(N2CCC[C@@H](N)C2)nc2c1c(=O)n(Cc1nc(C)c3ccccc3n1)c(=O)n2C` [Linagliptin], the total cell number came to 0.0291.

`Nc1cc2c(ncn2CCOCP(=O)(O)O)c(=O)[nH]1` [PMEG hydrate] came in with a total cell number of -4.38.

`O=C(/C=C/c1cccc(S(=O)(=O)Nc2ccccc2)c1)NO` [Belinostat (PXD101)] showed a total cell number of -11.7.

`Nc1nc2c(cnn2CCc2ccccc2)c2nc(-c3ccco3)nn12`: the total cell number is -4.23.

`CC1(C)Cc2c(-c3ccccc3)c(-c3ccc(Cl)cc3)c(CC(=O)O)n2C1` [Licofelone]: the total cell number is -1.86.

`CC(C)(C)c1cc(NC(=O)Nc2ccc(-c3cn4c(n3)sc3cc(OCCN5CCOCC5)ccc34)cc2)no1` [Quizartinib (AC220)] yielded a total cell number of -2.51.

`CC(C)N(CC[C@H](c1ccccc1)c1cc(CO)ccc1O)C(C)C`: the total cell number was -1.66.

Consider `CC[C@H](NC(=O)[C@H](C)NC)C(=O)N1C[C@@H](O)C[C@H]1Cc1c(-c2[nH]c3cc(F)ccc3c2C[C@@H]2C[C@H](O)CN2C(=O)[C@H](CC)NC(=O)[C@H](C)NC)[nH]c2cc(F)ccc12` [Birinapant], for which the total cell number is -9.12.

The compound `CN1CCN2c3ncccc3Cc3ccccc3C2C1` (stereo unspecified) [Mirtazapine] had a total cell number of -1.22.

`Cn1cc(C(F)(F)F)nc1-c1ccc(OCC(O)CNCCOc2ccc(O)c(C(N)=O)c2)cc1` (stereo unspecified) came in with a total cell number of 1.49.

For `CC(C)[C@H](N)C(=O)OCCOCn1cnc2c(=O)nc(N)[nH]c21` [Valaciclovir HCl], the total cell number is -1.33.

As for `CC1(C)O[C@@H]2C[C@H]3[C@@H]4C[C@H](F)C5=CC(=O)C=C[C@]5(C)[C@@]4(F)[C@@H](O)C[C@]3(C)[C@]2(C(=O)CO)O1` [Fluocinolone Acetonide], the total cell number worked out at 7.08.

`Cc1cc(C)nc(NS(=O)(=O)c2ccc(N)cc2)n1` [Sulfamethazine] displayed a total cell number of 0.347.

Turning to `CC(C)(Oc1ccc(Cl)cc1)C(=O)OCCOC(=O)c1cccnc1` [Etofibrate], the total cell number amounted to 0.165.

For `NC(C(=O)O)C(O)C(=O)O` (racemic) [DL-threo-beta-hydroxyaspartic acid], the total cell number was found to be 0.242.

Compound `CC1=NN(c2ccc(C)c(C)c2)C(=O)/C1=N\Nc1cccc(-c2cccc(C(=O)O)c2)c1O` [Eltrombopag] showed a total cell number of 0.452.

With `O=C(O)C1=CC(=C(c2ccc(O)c(C(=O)O)c2)c2ccc(O)c(C(=O)O)c2)C=CC1=O` [Aurintricarboxylic acid], the total cell number is -2.05.

For the compound `CCn1c(=O)c2c(nc(/C=C/c3ccc(OC)c(OC)c3)n2C)n(CC)c1=O` [Istradefylline], the total cell number is -2.25.

In turn, `CC(C(O)c1ccc(O)cc1)N1CCC(Cc2ccccc2)CC1` (stereo unspecified) [Ifenprodil tartrate] gave a total cell number of 2.51.

For the compound `CC(C(O)c1ccc(O)cc1)N1CCC(Cc2ccccc2)CC1` (stereo unspecified) [Ifenprodil Tartrate], the total cell number was 6.08.

On to `O=c1ccn([C@@H]2O[C@H](COP(=O)(O)OP(=O)(O)O)[C@@H](O)[C@H]2O)c(=O)[nH]1` [Uridine 5'-diphosphate sodium], for which the total cell number was -0.296.

In turn, `C[C@@H]1C/C=C/C=C/C=C/C=C/[C@H](O[C@@H]2O[C@H](C)[C@@H](O)[C@H](N)[C@@H]2O)C[C@@H]2O[C@](O)(C[C@@H](O)C[C@H]3O[C@@H]3/C=C/C(=O)O1)C[C@H](O)[C@H]2C(=O)O` [Natamycin] yielded a total cell number of -0.438.

Compound `COc1ccc(Cl)cc1C(=O)NCCc1ccc(S(=O)(=O)NC(=O)NC2CCCCC2)cc1` [Glybenclamide] came in with a total cell number of -1.49.

The compound `COc1ccc(Cl)cc1C(=O)NCCc1ccc(S(=O)(=O)NC(=O)NC2CCCCC2)cc1` [Glyburide] gave a total cell number of 1.67.

`Nc1nc(=O)n([C@@H]2CS[C@H](CO)O2)cc1F` [Emtricitabine] displayed a total cell number of -1.83.

Compound `CCc1cccc(CC)c1NC(=O)N1Cc2[nH]nc(NC(=O)c3ccc(N4CCN(C)CC4)cc3)c2C1` showed a total cell number of -17.5.

`COC(=O)N[C@@H](C)CNc1nccc(-c2cn(C(C)C)nc2-c2cc(Cl)cc(NS(C)(=O)=O)c2F)n1` displayed a total cell number of -4.4.

`CC[C@@H]1C(=O)N(C)c2cnc(Nc3ccc(C(=O)N[C@H]4CC[C@H](N5CCN(CC6CC6)CC5)CC4)cc3OC)nc2N1C(C)C` [Volasertib (BI 6727)] yielded a total cell number of -14.6.

As to `CC#C[C@]1(O)CC[C@H]2[C@@H]3CCC4=CC(=O)CCC4=C3[C@@H](c3ccc(N(C)C)cc3)C[C@@]21C` [Mifepristone], the total cell number was -3.26 ± 0.76.

As to `COc1cccc2c1C(=O)c1c(O)c3c(c(O)c1C2=O)C[C@@](O)(C(=O)CO)C[C@@H]3O[C@H]1C[C@H](N)[C@H](O[C@@H]2CCCCO2)[C@H](C)O1` [Pirarubicin], the total cell number is -22.5.

`Cc1nc(C(=O)NCC(=O)O)c(O)c2ccc(Oc3ccccc3)cc12`: the total cell number came to 3.22.

Turning to `COC(=O)C1=CO[C@@H](O)[C@@H]2C(CO)=CC[C@H]12` [Genipin], the total cell number is -0.955 ± 0.41.

On to `CCCCCCNC(=O)n1cc(F)c(=O)[nH]c1=O` [Carmofur], for which the total cell number was -17 ± 11.

In the case of `CCCOc1ccccc1-c1nc2[nH]nnc2c(=O)[nH]1` [Zaprinast], the total cell number was -9.68.

`CCCCOc1ccc(C(=O)Nc2ccc(F)cc2F)cc1` displayed a total cell number of 1.72.

Take `Nc1nc(OCc2cc(Br)cs2)c2[nH]cnc2n1` [Lomeguatrib]: the total cell number was -1.88 ± 0.17.

The compound `CC(=O)Nc1nnc(S(N)(=O)=O)s1` [Acetazolamide] returned a total cell number of -0.819.

For `CC(C)Oc1ccc2c(=O)c(-c3ccccc3)coc2c1` [Ipriflavone (Osteofix)], the total cell number was -0.104.

Consider `Cc1cc(Nc2cc(N3CCN(C)CC3)nc(Sc3ccc(NC(=O)C4CC4)cc3)n2)n[nH]1` [VX-680 (Tozasertib, MK-0457)], for which the total cell number is -24.

With `Clc1ccc2nsnc2c1NC1=NCCN1` [Tizanidine HCl], the total cell number is 0.414.

With `Clc1ccc2nsnc2c1NC1=NCCN1` [Tizanidine hydrochloride], the total cell number was -1.21.

Compound `Cc1cc(C(C)Nc2ccccc2)c2nc(N3CCOCC3)cc(=O)n2c1` (stereo unspecified) showed a total cell number of -11.4.

Compound `O=C(O)CCC(C(=O)O)N1C(=O)c2ccccc2C1=O` [L-Glutamic acid, N-phthaloyl-] came in with a total cell number of -0.877.

`NC1(Cc2ccc(Cl)cc2)CCN(c2ncnc3[nH]ccc23)CC1` had a total cell number of -7.73.

Compound `CCOC(=O)C1=C(N)Oc2ccc(Br)cc2C1C(C#N)C(=O)OCC` (stereo unspecified) came in with a total cell number of -0.448.

For `O=C1O[C@H]([C@@H](O)CO)C([O-])=C1O.[Na+]` [Sodium ascorbate], the total cell number stood at 0.261.

`CCCCOc1cc(C(=O)OCCN(CC)CC)ccc1N` [Oxybuprocaine HCl] displayed a total cell number of 3.12.

In turn, `N#C/C(=C1/SC[C@@H](c2ccc(Cl)cc2Cl)S1)n1ccnc1` [Luliconazole] showed a total cell number of 4.6.
